Data from PubChem BioAssay AID588342 (National Center for Advancing Translational Sciences (NCATS), 2011).
About 25,000 (6.9%) of roughly 360,000 compounds were called active. This list was built around the results that the source calls inconclusive (neither active nor inactive); the mix of calls is not that of the screen. Calls follow the shape of the dose curve; as a rule, active = well fitted inhibition curve with a large enough effect; inconclusive = small, poorly fitted or top-dose-only effect; inactive = flat fitted curve, though single readings scatter. A potency beside an inconclusive call is a rough fit, not a confirmed value.

target: Luciferin 4-monooxygenase (Photinus pyralis) (UniProt P08659); assay: qHTS profiling assay for firefly luciferase inhibitor/activator using purifed enzyme and Km concentrations of substrates (counterscreen for miR-21 project); conditions: purified FLuc, luminescence inhibition; series mostly up to 57.5 µM; activity change, negative = inhibition: at the top concentration; also: nearly all actives have a fitted effect of over 55% in size;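 as to activity change, negative = inhibition: plate controls were vehicle for no effect and reference inhibitor for full effect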
How it was run: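 Purified P. pyralis luciferase, 10 nM final, with Km-level 10 uM D-luciferin and 10 uM ATP in 50 mM Tris acetate pH 7.5, 10 mM Mg acetate, 0.01% Tween-20, 0.05% BSA; 6-point qHTS titration about 60 µM downward; luminescence read.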
Potency is read from the fitted curve at half-maximal effect; tags tell the direction and shape of the fitted curve.

Chain of UniProt P08659 (P08659 whole entry, looked up): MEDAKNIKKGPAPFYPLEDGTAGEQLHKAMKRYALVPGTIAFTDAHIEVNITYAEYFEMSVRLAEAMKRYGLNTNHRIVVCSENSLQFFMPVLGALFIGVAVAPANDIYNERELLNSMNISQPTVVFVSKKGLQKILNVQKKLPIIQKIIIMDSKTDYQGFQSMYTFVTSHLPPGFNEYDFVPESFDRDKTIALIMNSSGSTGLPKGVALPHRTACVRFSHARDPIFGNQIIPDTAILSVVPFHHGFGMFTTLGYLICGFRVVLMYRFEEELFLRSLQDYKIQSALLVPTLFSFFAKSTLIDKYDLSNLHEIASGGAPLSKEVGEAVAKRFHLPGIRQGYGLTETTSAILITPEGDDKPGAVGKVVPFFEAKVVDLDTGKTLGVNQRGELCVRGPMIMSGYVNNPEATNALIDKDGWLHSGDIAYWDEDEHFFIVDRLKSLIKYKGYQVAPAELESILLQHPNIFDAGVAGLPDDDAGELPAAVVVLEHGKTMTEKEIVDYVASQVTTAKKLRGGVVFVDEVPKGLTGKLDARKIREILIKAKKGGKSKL

| SMILES | Potency | activity change, negative = inhibition |
| --- | --- | --- |
| CC1CC(C)CN(C(=O)c2ccc(CSc3nc4ccncc4[nH]3)cc2)C1 (stereo not drawn) | inconclusive: 21.3 µM [inhibitor, partial curve, poor fit] |  |
| c1ccc(CCCOCCC2CO2)cc1 (stereo not drawn) |  | inactive: 1.46% |
| CCOc1ccccc1Oc1nc(C)nc2c1oc1ccccc12 |  | inactive: 5.27% |
| Fc1cccc(Nc2cc(-n3cccn3)ncn2)c1 | inconclusive: 30.1 µM [inhibitor, single point] |  |
| CCCN=CC1=C(O)CC(c2ccccc2)CC1=O (stereo not drawn) |  | inactive: 2.93% |
| COc1ccc(OCCn2nnc3sc4c(c3c2=O)CCCC4)cc1 |  | inactive: -3.64% |
| CCOc1ccc(-n2nc(CO)c(C(=O)NCC(C)O)n2)cc1 (stereo not drawn) | inconclusive: 19 µM [inhibitor, partial curve, poor fit] |  |
| COc1ccc(Nc2nc(NN)nc(Nc3ccc(OC)cc3)n2)cc1 | active: 10.7 µM |  |
| Cc1ccc2oc(C(=O)NC3CCS(=O)(=O)C3)c(C)c2c1 (stereo not drawn) |  | inactive: -16.3% |
| O=C(CN1CCC(NC(=O)c2ccc(Br)cc2)CC1)NCc1cccs1 | inconclusive: 16.9 µM [inhibitor, partial curve, poor fit] |  |
| CC(C)(C)c1ccc(-c2nnc(N)s2)cc1 | active: 1.9 µM |  |
| COc1ccc(C(=O)Nc2nnc(Cc3ccc(OC)c(OC)c3)s2)c(OC)c1 | active: 26.9 µM |  |
| Oc1oc(-c2ccccc2Br)nc1/C=N/c1ccccn1 | active: 7.57 µM |  |
| O=C(Nc1ccc2c(c1)CCC2)c1c(F)cccc1Cl | active: 9.53 µM |  |
| Cc1cccc(C(=O)NNc2ncnc3c2cnn3-c2ccc(C)c(Cl)c2)c1 | inconclusive: 16.9 µM [inhibitor, partial curve] |  |
| O=C(O)c1ccc2c(c1Nc1ccccc1)C(=O)c1ccccc1C2=O | inconclusive: 37.9 µM [inhibitor, single point] |  |
| CC(C)CCN(C)c1ccc(/C=N/n2cnnc2)cc1 | inconclusive: 37.9 µM [inhibitor, partial curve, poor fit] |  |
| CC(C)n1nnnc1SCC(=O)Nc1ccc2c(c1)OCO2 | inconclusive: 37.9 µM [inhibitor, partial curve, poor fit] |  |
| Cc1ccc(NC(=O)CN(C)CC(=O)Nc2ccccc2Oc2ccccc2)cc1 |  | inactive: 4.24% |

| SMILES | Potency | activity change, negative = inhibition |
| --- | --- | --- |
| CCn1c(SCC(=O)c2ccccc2)nnc1-c1cccc(Cl)c1 | inconclusive: 30.1 µM [inhibitor, partial curve, poor fit] |  |
| COc1ccc(CC(=O)O/N=C(\N)c2ccncc2)cc1 |  | inactive: -16.7% |
| COCCn1c(/C=C/c2ccccc2)nc2ccccc21 | active: 1.69 µM |  |
| CCCCn1c(-c2cccc(C)c2)nc2cc3[nH]c(=O)c(C(C)C)nc3cc21 | inconclusive: 16.9 µM [inhibitor, partial curve] |  |
| O=c1oc(-c2ccc(Br)cc2)nc2ccccc12 | inconclusive: 3.01 µM [inhibitor, full curve] |  |
| CC(=O)NCCc1nc2cc(NC(=O)c3ccccc3)ccc2n1C | active: 16.9 µM |  |
| Cc1ccc(C)c(N2CCN(C(=O)CS(=O)(=O)c3cccc4nsnc34)CC2)c1 |  | inactive: -7.63% |
| O=C1CSC(=S)N1/N=C/C=C/c1ccccc1 | inconclusive: 16.9 µM [inhibitor, partial curve] |  |
| COc1cc(/C=C/C(=O)OCC(=O)N2CCC(C)CC2)ccc1O | inconclusive: 37.9 µM [inhibitor, single point] |  |
| Cc1ccc(CNS(=O)(=O)c2cn(C)c(=O)n(C)c2=O)cc1 |  | inactive: 0.658% |
| COCCCNc1oc(-c2ccccc2F)nc1C#N | inconclusive: 26.9 µM [inhibitor, single point] |  |
| Cc1cc(NC(=O)C(C)(C)C)cc(-c2nc3ncccc3o2)c1O | inconclusive: 10.7 µM [inhibitor, partial curve] |  |
| Cc1ccc(N2C(=O)c3ccccc3C2O)nc1 (stereo not drawn) | active: 1.51 µM |  |
| CC(=O)Nc1ccc(S(=O)(=O)NCc2ccc(C(=O)NC(C)c3ccccc3)cc2)cc1 (stereo not drawn) |  | inactive: -1.87% |
| N/C(=N\OC(=O)C12CC3CC(CC(C3)C1)C2)c1ccccn1 | active: 7.57 µM |  |
| O=C(COc1ccccc1)NC(NC(=S)Nc1ccccc1C(=O)O)C(Cl)(Cl)Cl (stereo not drawn) |  | inactive: 0.335% |
| c1cncc(-c2nc3ccccn3c2Nc2ccc3c(c2)OCCO3)c1 | inconclusive: 26.9 µM [inhibitor, single point] |  |
| Cc1nn(C(C)C(=O)NC2CCCCCC2)c(=O)c2nn(-c3ccccc3)c(C)c12 (stereo not drawn) | inconclusive: 12 µM [inhibitor, partial curve, poor fit] |  |
| CCOC(=O)C(Cc1ccccc1)NC(=O)CCc1c(C)nc2c(c(C)nn2-c2ccc(C)c(C)c2)c1C (stereo not drawn) |  | inactive: -1.42% |
